Measurements taken from the supplement of paper PMC10369915.
This is one part of the list. No stated cut-off is given here; in the data, active = 3.2 or more and inactive = the rest. The signal is at background level for most entries.

B1: SLC20A2_Y433_S434W_YF (peptide)
chain: LRFDSYWSFCN
B2: SLC22A5_Y486_R488C (peptide)
chain: VYLGAYDCFLP
B3: SLC25A4_Y187_R188K_YF (peptide)
chain: QGIIIYKAAFF
B4: SLC25A4_Y191_R188K (peptide)
chain: IYKAAYFGVYD
B5: SLC26A3_Y526_K521N (peptide)
chain: NNKKDYYDMYE
B6: SLC25A1_Y297 (peptide)
chain: IVFVIYDEVVK
B7: SLC25A32_Y152 (peptide)
chain: RLMLQYDAVVN
B8: SLC27A4_Y243_S247P (peptide)
chain: TDKLFYIYTPG
B9: SLC22A5_Y486_YF (peptide)
chain: VFLGAYDRFLP
B10: SLC27A4_Y245_S247P (peptide)
chain: KLFYIYTPGTT
B11: SLC22A14_Y291_S292G (peptide)
chain: LTGIAYGLPHW
B12: SLC20A2_Y377_R382Q (peptide)
chain: AQESNYRLLRQ
B13: SLC25A4_Y81 (peptide)
chain: ANVIRYFPTQA
B14: SLC4A1_Y553_P548L (peptide)
chain: LLQKTYNYNVL
B15: SLC22A5_Y486_R488C_YF (peptide)
chain: VFLGAYDCFLP
B16: SLC26A3_Y520 (peptide)
chain: GRTNIYKNKKD
B17: SLC27A4_Y245 (peptide)
chain: KLFYIYTSGTT
B18: SLC28A3_Y113 (peptide)
chain: ILLAGYLVMVI
B19: SLC27A4_Y243 (peptide)
chain: TDKLFYIYTSG
B20: SLC4A1_Y553_T552I_YF (peptide)
chain: PLQKIYNFNVL
B21: SLC4A1_Y553_T552I (peptide)
chain: PLQKIYNYNVL
B22: SLC25A32_Y152_R147H (peptide)
chain: HLMLQYDAVVN
B23: SLC2A4_Y56_S55R (peptide)
chain: VIEQRYNETWL
B24: SLC26A3_Y520_K521N (peptide)
chain: GRTNIYNNKKD
B25: SLC20A2_Y433_S434W (peptide)
chain: LRYDSYWSYCN
B26: SLC26A3_Y526_YF (peptide)
chain: KNKKDYFDMFE
B27: SLC20A2_Y433 (peptide)
chain: LRYDSYSSYCN
B28: SLC25A1_Y297_Y297C (peptide)
chain: IVFVICDEVVK
B29: SLC25A4_Y191_R188K_YF (peptide)
chain: IFKAAYFGVFD
B30: SLC25A4_Y112_A114P (peptide)
chain: KQFWRYFPGNL
B31: SLC25A4_Y81_R80H (peptide)
chain: ANVIHYFPTQA
B32: SLC38A4_Y27 (peptide)
chain: SAPDSYIGIGN
B33: SLC25A4_Y187_R188K (peptide)
chain: QGIIIYKAAYF
B34: SLC20A2_Y386_R382Q (peptide)
chain: RQNNSYTCYTA
B35: SLC20A2_Y436_YF (peptide)
chain: DSFSSYCNAVA
B36: SLC4A1_Y553_P548L_YF (peptide)
chain: LLQKTYNFNVL
B37: SLC22A14_Y291 (peptide)
chain: LTGIAYSLPHW
B38: SLC27A4_Y243_YF (peptide)
chain: TDKLFYIFTSG

molecular target: SHP2 C-SH2 domain E139D; test: enrichment score (SH2-bound / input frequency) (ratio); bacterial display of known human phosphotyrosine sites (pTyr-Var adds point mutants) read by sequencing; higher = stronger binding; tyrosines were phosphorylated by kinases first; settings: peptide library: pTyr-Var
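Further: displayed peptides selected on beads carrying the immobilized SH2 domain, with library peptides lacking any tyrosine serving as negative controls.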

Binder	enrichment score
B1	inactive: 1.38
B2	inactive: 1.44
B3	inactive: 0.523
B4	inactive: 1.01
B5	inactive: 0.846
B6	active: 3.84
B7	inactive: 0.904
B8	inactive: 0.676
B9	inactive: 1.27
B10	inactive: 0.694
B11	inactive: 0.931
B12	inactive: 0.793
B13	inactive: 0.895
B14	inactive: 1.14
B15	inactive: 1.67
B16	inactive: 0.536
B17	inactive: 1.2
B18	inactive: 2.48
B19	inactive: 1.02

Binder	enrichment score
B20	inactive: 2.57
B21	inactive: 1.35
B22	inactive: 1.6
B23	inactive: 1
B24	inactive: 0.841
B25	inactive: 2.37
B26	inactive: 0.974
B27	inactive: 0.897
B28	inactive: 2.15
B29	inactive: 1.3
B30	inactive: 2.32
B31	inactive: 0.872
B32	inactive: 0.653
B33	inactive: 0.856
B34	inactive: 0.574
B35	inactive: 1.09
B36	inactive: 1.36
B37	inactive: 1.26
B38	inactive: 1.31

molecular target: SHP2 C-SH2 domain wild-type; test: as above; settings: peptide library: pTyr-Var

Binder	enrichment score
B1	inactive: 1.55
B2	inactive: 1.53
B3	inactive: 0.663
B4	inactive: 1
B5	inactive: 0.617
B6	inactive: 3
B7	inactive: 0.977
B8	inactive: 0.843
B9	inactive: 1.59
B10	inactive: 0.679
B11	inactive: 0.987
B12	inactive: 1.06
B13	inactive: 0.882
B14	inactive: 0.851
B15	inactive: 1.36
B16	inactive: 0.55
B17	inactive: 1.14
B18	inactive: 2.34
B19	inactive: 1.24

Binder	enrichment score
B20	inactive: 2.27
B21	inactive: 0.975
B22	inactive: 1.5
B23	inactive: 0.795
B24	inactive: 0.88
B25	inactive: 2.37
B26	inactive: 1.07
B27	inactive: 1.02
B28	inactive: 1.94
B29	inactive: 1.31
B30	inactive: 2.27
B31	inactive: 1.09
B32	inactive: 0.594
B33	inactive: 1.41
B34	inactive: 1.4
B35	inactive: 1
B36	inactive: 1.2
B37	inactive: 3.03
B38	inactive: 1.03

molecular target: SHP2 N-SH2 domain L43F; test: as above; settings: peptide library: pTyr-Var

Binder	enrichment score
B1	inactive: 1.4
B2	inactive: 1.46
B3	inactive: 0.819
B4	inactive: 1.35
B5	inactive: 0.6
B6	active: 3.54
B7	inactive: 1.08
B8	inactive: 0.601
B9	inactive: 1
B10	inactive: 0.654
B11	inactive: 3.16
B12	inactive: 0.538
B13	inactive: 0.913
B14	inactive: 1.19
B15	inactive: 1.39
B16	inactive: 0.471
B17	inactive: 1.13
B18	inactive: 2.15
B19	inactive: 1.11

Binder	enrichment score
B20	inactive: 2.33
B21	inactive: 1.33
B22	inactive: 1.22
B23	inactive: 0.855
B24	inactive: 0.879
B25	inactive: 1.96
B26	inactive: 1.1
B27	inactive: 0.838
B28	inactive: 1.69
B29	inactive: 1.38
B30	inactive: 1.8
B31	inactive: 1.08
B32	inactive: 0.694
B33	inactive: 2.25
B34	inactive: 0.674
B35	inactive: 0.813
B36	inactive: 1.34
B37	active: 7.2
B38	inactive: 1.11

molecular target: SHP2 N-SH2 domain T42A; test: as above; settings: peptide library: pTyr-Var

Binder	enrichment score
B1	inactive: 1.28
B2	inactive: 1.45
B3	inactive: 1
B4	inactive: 1.16
B5	inactive: 0.515
B6	active: 3.24
B7	inactive: 1.01
B8	inactive: 0.643
B9	inactive: 1.2
B10	inactive: 0.765
B11	active: 3.77
B12	inactive: 0.506
B13	inactive: 0.66
B14	inactive: 0.962
B15	inactive: 1.35
B16	inactive: 0.493
B17	inactive: 1.37
B18	inactive: 1.94
B19	inactive: 0.943

Binder	enrichment score
B20	inactive: 1.83
B21	inactive: 1.39
B22	inactive: 1.39
B23	inactive: 0.73
B24	inactive: 0.762
B25	inactive: 1.69
B26	inactive: 0.81
B27	inactive: 0.835
B28	inactive: 1.8
B29	inactive: 1.04
B30	inactive: 1.67
B31	inactive: 1.01
B32	inactive: 0.558
B33	inactive: 2.69
B34	inactive: 0.805
B35	inactive: 0.865
B36	inactive: 1.21
B37	active: 11.7
B38	inactive: 1.12

molecular target: SHP2 N-SH2 domain T52S; test: as above; settings: peptide library: pTyr-Var

Binder	enrichment score
B1	inactive: 1.36
B2	inactive: 1.41
B3	inactive: 0.633
B4	inactive: 1.52
B5	inactive: 0.449
B6	active: 3.67
B7	inactive: 0.99
B8	inactive: 0.597
B9	inactive: 1.24
B10	inactive: 0.74
B11	active: 4.1
B12	inactive: 0.482
B13	inactive: 0.756
B14	inactive: 1
B15	inactive: 1.52
B16	inactive: 0.588
B17	inactive: 1.03
B18	inactive: 2.12
B19	inactive: 0.849

Binder	enrichment score
B20	active: 3.23
B21	inactive: 1.17
B22	inactive: 1.09
B23	inactive: 0.991
B24	inactive: 0.877
B25	inactive: 2.04
B26	inactive: 0.979
B27	inactive: 0.78
B28	inactive: 1.83
B29	inactive: 1.29
B30	inactive: 1.91
B31	inactive: 0.991
B32	inactive: 0.65
B33	inactive: 2.53
B34	inactive: 0.784
B35	inactive: 0.949
B36	inactive: 1.54
B37	active: 9.62
B38	inactive: 1.19

molecular target: SHP2 N-SH2 domain wild-type; test: as above; settings: peptide library: pTyr-Var

Binder	enrichment score
B1	inactive: 1.7
B2	inactive: 1.4
B3	inactive: 0.733
B4	inactive: 1.15
B5	inactive: 0.86
B6	inactive: 2.98
B7	inactive: 1.11
B8	inactive: 0.878
B9	inactive: 1.23
B10	inactive: 0.725
B11	inactive: 1.68
B12	inactive: 0.94
B13	inactive: 0.952
B14	inactive: 1.16
B15	inactive: 1.23
B16	inactive: 0.525
B17	inactive: 1.45
B18	inactive: 2.36
B19	inactive: 1.05

Binder	enrichment score
B20	inactive: 1.79
B21	inactive: 1.16
B22	inactive: 1.21
B23	inactive: 0.997
B24	inactive: 0.937
B25	inactive: 2.27
B26	inactive: 0.753
B27	inactive: 1.31
B28	inactive: 2.12
B29	inactive: 1.28
B30	inactive: 1.85
B31	inactive: 0.923
B32	inactive: 0.572
B33	inactive: 1.46
B34	inactive: 1
B35	inactive: 0.964
B36	inactive: 1.13
B37	inactive: 2.63
B38	inactive: 1.05
